# From the supplement of paper PMC11417369
# The list shows a part of the results.
# System: PfSIP2 AP2 domain 1 (GST-tagged)
# Assay: gcPBM binding intensity (ln(normalized median fluorescence intensity)); higher = stronger DNA binding
# In short: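 GST-fused DNA-binding domains of P. falciparum, expressed in E. coli, were applied at about 25 μg on average for 1 h to an Agilent 4 × 180k array of primer-extended double-stranded 36-bp intergenic genomic probes and negative controls. Binding intensity is the highest Masliner-normalised natural-log median intensity across replicate spots of either probe orientation, measured with Alexa488 anti-GST antibody and a 488 nm scan.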
row,Sequence,gcPBM binding intensity (ln)
1,TTTTTGTTCTATATGGTGCATGTTTATATTCGTATT,10.3
2,ATTAGCAACATTGATAAATATAAACACACGAAAACA [TGCATGCA_negctrl_site97],7.21
3,ATACCATAAATATTGTGTACATAAATATGTTAGTAA [XGTACX_site6077],7.03
4,TTTTAGAAATTTACTAAACTTTATATAACTATTGAA [TGCATGCA_negctrl_site280],6.76
5,CATGTTTATGCCGTTTGTACATATATATCTAAAAAA [XGTACX_site4336],7.56
6,CACGTATATATATATACACACACATATATATATGTA [CACACA_site7948],7.1
7,GTTCATATCTTTTGAGCACACATATATATATATAAA [CACACA_site9099],7.26
8,ATAAGTAAAAATAAAAAAAAAATATATATATATATA [CACACA_negctrl_site1816],9.24
9,ATGATTATAATTTAAAATATTTTACATAACCATTTC [GTGCAC_negctrl_site297],7.06
10,TTTAGCTATTATAGCTGTACAATGATAAAATAAATT [XGTACX_site6318],6.96
11,AATGAATCCTTATATACACACATTATTATATTATAT [CACACA_site3108],7.05
12,ATTGATACATCCAATACACACTACATATAATGATGT [CACACA_site8561],6.97
13,TTTTTTATATATACATATATATAAATATATATAACT [GTGCAC_negctrl_site385],6.72
14,ATATTAATAATATATGCATGCATTAACATATTGAAA [TGCATGCA_site951],7.22
15,GTATGTATGTATATATGTACACATTATTATTTAATG [XGTACX_site5802],7.49
16,GAGAAAAGGAAATTCACACATATAAAGAAAGATCTA [CACACA_site5420],6.64
17,AGTTTATTTGTAAAAAGTACATATTTAAGAAAACTT [XGTACX_site2318],6.96
18,TTCTAACTCTAACAAGTGCAATATATATACATAATA,8.34
19,AAATTTGGCAAACACACACACACACCCACACCCACA [CACACA_site8095],6.95
20,AATATATATCATCACACACACATACATAAATATATA [CACACA_site184],7.22
21,TATATTATATATATGTGTACATATAAATGTAACAAA [XGTACX_site5025],7.28
22,AATACATATAAAAGTACACACACACCCATATATATA [CACACA_site8220],7.61

row,Sequence,gcPBM binding intensity (ln)
1,ATAGAATACATATATGAACACACAGAGTTTTAAAAA [CACACA_site8879],6.89
2,TTTTTTTTTTGATGTTGTACATATATACTATATAAT [XGTACX_site1332],7.02
3,GAAAATAAAAAAAATAAAAAAAATAAAAAAAATTAT [XGTACX_negctrl_site443],6.71
4,TAAATATCTAAAGACTGTACAATTAAATATAAACAT [XGTACX_site1450],6.96
5,TTTTGTAACCTATGCACGCACACAAGAAAAAAACAA [CACACA_site3776],7.7
6,TTATAAAGAACACAGACACACAAAGAAAGAACCAAT [CACACA_site4175],7.23
7,CACAAATAAATACATACACACATATATACTCATATA [CACACA_site4379],6.99
8,TGGGCGTCATAATGAACACACAATTATATTATGACT [CACACA_site3910],6.81
9,TTACACAAATAGCTGCATTTATAAAATACAATTAAA [CACACA_negctrl_site241],6.79
10,TTTTGTCAATTTTAGATTTTTCAATACATGGATATT [CACACA_negctrl_site319],6.77
11,ATATATATATATTTATGTACGAATATGTTTAATTTA [XGTACX_site3986],8.93
12,ATATATATAATAATATGTACGGAAAAAGCTTAAGCT [XGTACX_site5661],7.22
13,AAATATATATATTTACGTACATATATACAAATAGAG [XGTACX_site6067],7.68
14,AAAAATAAAGAAACAGGTACGCATATATTAAGATAT [XGTACX_site8097],7
15,AATATATTCCACATGTGTACATATATATATATATAT [XGTACX_site8006],9.73
16,TTTCCTTCTACAAAAAATTTTATCAAGAGGAAGTAC [CACACA_negctrl_site926],7.37
17,TGTCACTACAAATGAGTGCATTAAATAATTTGGAAA,8.93
18,ATATGCAAAGAGTATAATCAAAATGTAAATAAATAA [GTGCAC_negctrl_site141],6.8
19,AATATTATTTATATTTGTACACAGTAATATAAAATA [XGTACX_site4884],6.95
20,CCATAGATATTTTATACACACATATAATATATTAAG [CACACA_site4363],6.99
21,CCACATTAAAAAAAAACACACATATATTATATATAT [CACACA_site1155],7.73
22,AATACATGAATATGTAGTACAGAAAAAAAAAATATA [XGTACX_site1945],7

row,Sequence,gcPBM binding intensity (ln)
1,AAAATGACATAATGGGGAATAGACATATACATAAAT [CACACA_negctrl_site1669],6.71
2,GTTACAGAGAATGTTGTGCACATATCAATAATATAT [GTGCAC_site9671],9.27
3,TATATATATATATATATTTTAAATGATATAAATGGT [TGCATGCA_negctrl_site152],9.66
4,AATTAATTAAATTAATGTACACATATATTTGTATTC [XGTACX_site2341],7.14
5,AAATGGTAAGAAAATAAATAAAGTTCTACCACATAA [CACACA_negctrl_site1542],6.77
6,TAGAAAGAATATAATTGTACAAATGTTGATAGATAA [XGTACX_site7259],7.22
7,ATATATATATATATATATATATATGTTTGATTTTTT [XGTACX_negctrl_site98],9.71
8,ATTTTTCTTTTATTAACACACATATAAATAAATACA [CACACA_site2876],7.33
9,TATAAACCATAATTAACACACAAAATAAGTTACATA [CACACA_site3227],6.87
10,ATAATAATAAAAATTATACATAAGTATATGCACATA [XGTACX_negctrl_site583],8.3
11,TTTTGCTTTTTTTTTCTTTTTTGTTTTATATATATT [CACACA_negctrl_site103],6.87
12,ACATATGGTATTTAAACACACAAAAAAGAAAGAAAA [CACACA_site991],6.91
13,TTGACATATAAGATATGTACTAATACACACACATAT [XGTACX_site1904],6.99
14,AAATAATAAAACAACACACAAATAGTTAAAATAGAA [CACACA_site5007],7.03
15,ACATTCTATATATACACACATACATAATAAAGAAAG [CACACA_site2771],7.27
16,TTTTAATGATATATGAGTACACATTGTTTTTTATAA [XGTACX_site1072],7.21
17,ATATAATGATGGAAAAGAAAAGAAATAAAAAAAAAA [CACACA_negctrl_site1170],6.66
18,AATAAAAAAAAACTCATGCACACAATATTATGAAAA [CACACA_site664],7.06
19,CATATATAGATATATACACACATACATACATACATA [CACACA_site7748],7.12
20,TGCATATGCATTATTTGTACATATGTAGATAATTAT [XGTACX_site6930],7.08
21,AAAAATTACAAATACAAACACACAAATGTTTTTCAT [CACACA_site3551],6.87
22,AATAAAATAAATATATGTACATATATATAACCATTA [XGTACX_site5549],7

row,Sequence,gcPBM binding intensity (ln)
1,TTTTTTTTTTTGAAATGTACATTCCAAAAACTGATA [XGTACX_site1495],6.99
2,TATATATATATATATTTTTTTTTTTTATGCACATGG [CACACA_negctrl_site1573],9.18
3,CTTTTGAACAGTTCATGTACTCAATTTTTTAATAGT [XGTACX_site6498],7.14
4,TAATACCTATGGTATAGTACGTATTATTTTATAGAG [XGTACX_site2078],6.82
5,TATTTTTATTGGTACTGTACCTATTTAGAAATACAT [XGTACX_site6663],6.96
6,ATGATTTCATTTGAGAGTACGTAAAAATAATACGTA [XGTACX_site4958],6.93
7,TATTTATAAAAAAATACATGCATTTTTTTTTTTTTT [TGCATGCA_site65],7.13
8,TGTTAATTCTTAAGAATTTCCATAATTTCTTCTTTT [CACACA_negctrl_site1065],6.75
9,TTTGCCATATGACACACACACATGTAAACCCCCTTT [CACACA_site6873],7.48
10,TAATACAAAAACAATGTTCTTTCAAACATAAACATA [CACACA_negctrl_site1628],6.78
11,TTATATTCTAGAGACACATGCGATTTTTTATTTTAT [TGCATGCA_site649],6.83
12,TGGAATAATCCGCGTACACACATATATATATTAAGA [CACACA_site4253],7.51
13,AATAAAAATAGGAATACGCACACGATGATTAATTTA [CACACA_site1836],6.78
14,AATTAACCCTAATTTTGTACATATTCCTTTTCTCAT [XGTACX_site46],6.82
15,GTTACTATGATTAATGCATGCAAATACCAAAAAAAA [TGCATGCA_site590],7.54
16,TATACCACACGATATACACACTTGTAGACATCTTTT [CACACA_site6232],6.94
17,TAATACGAATGAGGCACACACCTAGTATACATGCTT [CACACA_site6438],6.65
18,TCCCTTCATCTTTTATGTACTAAAAAATTGAATAAT [XGTACX_site2172],7.37
19,AATTAAAATTTTTGAAGTACACTCAAAATAAGTTAT [XGTACX_site4490],6.97
20,AAAATAAAAAAAAACACACACATACAAGCATATATA [CACACA_site1585],6.89
21,AAAAAAAAATTTAAGGGTACATACAAATATATATAT [XGTACX_site5078],8.33
22,CATATATAAAAAAACACACACATATTTATATTTATA [CACACA_site6682],6.93
